{
  "source": "the supplement of paper PMC11417369",
  "note": "± gives the standard deviation of the averaged measurements. Some of the results follow.",
  "data": [
    {"tested_on": "PfAP2-I AP2 domain 3 (GST-tagged)", "test": "gcPBM binding intensity (ln(normalized median fluorescence intensity)); higher = stronger DNA binding", "in_short": "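Using an Agilent 4 × 180k array, primer-extended double-stranded 36-bp intergenic genomic probes and negative controls were exposed for 1 h to GST-fused P. falciparum DNA-binding domains expressed in E. coli. Binding was carried out in 1× PBS with 1% milk, 0.2 mg/ml BSA, 0.5% salmon testes DNA and 0.03% Triton X-100, and protein was detected with Alexa488 anti-GST antibody and a 488 nm scan. Binding intensity is the highest Masliner-normalised natural-log median intensity across replicate spots of either probe orientation.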", "values": [
      {"sequence": "TTATAAATATAATATTGTACAAAATTTTAACATGTC [XGTACX_site5259]", "gcPBM binding intensity (ln)": "7.61 ± 0.49"},
      {"sequence": "CTTATGTGTATAAGTAGTACTAAATTAAAATAATAT [XGTACX_site2681]", "gcPBM binding intensity (ln)": "7.95 ± 0.29"},
      {"sequence": "TATACATATATAATATGTACATATATTTTTTTTTAA [XGTACX_site2938]", "gcPBM binding intensity (ln)": "7.38 ± 0.24"},
      {"sequence": "CATAAAAATATTTTCTGTACATATTCATATGACGTT [XGTACX_site3406]", "gcPBM binding intensity (ln)": "7.91 ± 0.46"},
      {"sequence": "ATAAATAAAATTAGGTGTACTTTAATTAAAGAAAAT [XGTACX_site3319]", "gcPBM binding intensity (ln)": "8.17 ± 0.33"},
      {"sequence": "AGGTTCCCAAAATGCACACCAATGAAATTATTTATT [CACACA_site553]", "gcPBM binding intensity (ln)": 9.31},
      {"sequence": "ATAAATATTGGGTGCACACACATAATATATATATAT [CACACA_site2272]", "gcPBM binding intensity (ln)": "10.8 ± 0.45"},
      {"sequence": "AAAATAAAAAATATAACACACAATAAATATATATAT [CACACA_site1926]", "gcPBM binding intensity (ln)": "8.965 ± 0.021"},
      {"sequence": "TATACAAAATAACTAGCACACATATGTATAAACATA [CACACA_site9236]", "gcPBM binding intensity (ln)": "7.73 ± 0.47"},
      {"sequence": "ATTTCCTGGCTACTGTGTACTGACCTCCAGACTGCT [XGTACX_site2005]", "gcPBM binding intensity (ln)": "7.79 ± 0.98"},
      {"sequence": "TTTTAACTTTTATATTGTACGTTGTTTATTTTATTT [XGTACX_site7504]", "gcPBM binding intensity (ln)": "7.91 ± 0.77"},
      {"sequence": "ATAATCATTTGGATATTCACAATATTTAAAATTAAA [CACACA_negctrl_site909]", "gcPBM binding intensity (ln)": "7.55 ± 0.54"},
      {"sequence": "GAAAAAAAAAAAAAAAAAAAAAAATTCATTTTTTTT [XGTACX_negctrl_site54]", "gcPBM binding intensity (ln)": "7.38 ± 0.66"},
      {"sequence": "ATGGAAAAAAAGCATTGTACATTTAAAGAAAAACAG [XGTACX_site6639]", "gcPBM binding intensity (ln)": "8.35 ± 0.45"},
      {"sequence": "TATTATATTTGTATGTGTACTTATATGGTTGTAATA [XGTACX_site4548]", "gcPBM binding intensity (ln)": "7.87 ± 0.26"},
      {"sequence": "AACGAAAACACTACGTGTACCAAATGTCCTGCCAAC [XGTACX_site5735]", "gcPBM binding intensity (ln)": "7.83 ± 0.71"},
      {"sequence": "AAATATTATCAAACATAAATTATTTTTATCCGTATA [CACACA_negctrl_site771]", "gcPBM binding intensity (ln)": "7.46 ± 0.69"},
      {"sequence": "TCTCTAATTTTTAATACACACAAATAAATAAATAAA [CACACA_site216]", "gcPBM binding intensity (ln)": "8.02 ± 0.57"},
      {"sequence": "AAAAAAATATAGATCTGTACATATATAAATATATGT [XGTACX_site511]", "gcPBM binding intensity (ln)": "7.46 ± 0.35"},
      {"sequence": "ATATATGTTAATAATTGTACAAATCGATAATATATA [XGTACX_site5076]", "gcPBM binding intensity (ln)": "7.86 ± 0.5"},
      {"sequence": "AATGTATATTATTGCACACATATATAAAATTATGCT [CACACA_site1096]", "gcPBM binding intensity (ln)": "10.1 ± 0.27"},
      {"sequence": "ATTTGTGAATATATTCGGTGAACTTTGTTAACACAT [XGTACX_negctrl_site445]", "gcPBM binding intensity (ln)": "7.79 ± 0.61"},
      {"sequence": "ATCTCTATGATATATACACACAAATATACAAAAAAA [CACACA_site6605]", "gcPBM binding intensity (ln)": "7.84 ± 0.51"},
      {"sequence": "AATCTAATTAAAATCACACATATATTCGTCGTAATA [CACACA_site5855]", "gcPBM binding intensity (ln)": "7.47 ± 0.47"},
      {"sequence": "AAAAAATTAACGAGTGCACACATATTTAGATAAAAT [CACACA_site8958]", "gcPBM binding intensity (ln)": "9.86 ± 0.18"},
      {"sequence": "ATATATATATATATAACACACGTGTATTTATCTGTA [CACACA_site5922]", "gcPBM binding intensity (ln)": "9.34 ± 0.58"},
      {"sequence": "ATATATATATATATGTGTACACAAAAAATATTATAT [XGTACX_site5741]", "gcPBM binding intensity (ln)": "9.32 ± 0.54"},
      {"sequence": "ATTCAAAAAAAATCAACACACAGTTACATAGCTCAA [CACACA_site2234]", "gcPBM binding intensity (ln)": "7.5 ± 0.49"},
      {"sequence": "ATTCCATAAGTAAACACACAAATGCCAAAATTTTAT [CACACA_site7491]", "gcPBM binding intensity (ln)": "7.76 ± 0.59"},
      {"sequence": "GCACATATATATGAAACACACATGGAAACATCTCTT [CACACA_site3966]", "gcPBM binding intensity (ln)": "7.75 ± 0.59"},
      {"sequence": "AAAAAAAAAAAAAAATGTACATATAAATAAATATAT [XGTACX_site7248]", "gcPBM binding intensity (ln)": "8.06 ± 0.42"},
      {"sequence": "ACAACATAGAGGGGCACACACATATATACATAAAAA [CACACA_site6954]", "gcPBM binding intensity (ln)": "8.63 ± 0.085"},
      {"sequence": "TAATATCCATATAAAACACACATCAAGGTTGTTAAC [CACACA_site175]", "gcPBM binding intensity (ln)": "7.64 ± 0.61"},
      {"sequence": "TATGTGCACCCATATACACACACAAATACAATGATA [CACACA_site8295]", "gcPBM binding intensity (ln)": "11.3 ± 0.85"},
      {"sequence": "AATTCATATACAAAAAGTACAAACGAAAAATAAAAA [XGTACX_site2900]", "gcPBM binding intensity (ln)": "7.86 ± 0.45"},
      {"sequence": "GTTATATAAAAATATTGTACATTCTATATAAAGTCA [XGTACX_site4418]", "gcPBM binding intensity (ln)": "7.66 ± 0.45"},
      {"sequence": "ATGTTTTATATTATTAATATATATATATATATATAT [CACACA_negctrl_site331]", "gcPBM binding intensity (ln)": "9.14 ± 0.55"},
      {"sequence": "TTTATTTATTATTAAAGTACTAAATTATATTATTAT [XGTACX_site2565]", "gcPBM binding intensity (ln)": "7.39 ± 0.53"},
      {"sequence": "AGGCATAATTAAAAGTAACAATTATGGAAACGGAGT [GTGCAC_negctrl_site623]", "gcPBM binding intensity (ln)": "7.99 ± 0.75"},
      {"sequence": "AAAAAAAAAAAAAACACACACATGCACCTCATATTA [CACACA_site556]", "gcPBM binding intensity (ln)": "8.99 ± 0.3"},
      {"sequence": "TTTCGTAACTATTTGTGTACATATATATATATATAT [XGTACX_site2920]", "gcPBM binding intensity (ln)": "9.57 ± 0.45"},
      {"sequence": "ATTTTCTTTTCCATAGTGCAATATAATTATCCATCA [GTGCAC_site9547]", "gcPBM binding intensity (ln)": "11.3 ± 0.39"},
      {"sequence": "ATAAATATATGAAATATACACACTTCTTTGGTATTA [CACACA_site456]", "gcPBM binding intensity (ln)": "7.67 ± 0.52"},
      {"sequence": "ATACATATATATATGTGTACATATTATATATACATA [XGTACX_site8420]", "gcPBM binding intensity (ln)": "7.71 ± 0.29"}
    ]}
  ]
}
